# In the supplement of paper PMC10326071:
# The list shows a part of the results. Repeats are few or missing, and single values can be far off.
# System: SARS-CoV-2 nsp3 SARS-unique domain core (SUD-core, nsp3 residues 413-676)
# Assay: dissociation rate constant koff (BLI); higher = faster dissociation
# Settings: 100 µM; 25 °C
row,Structure (SMILES),dissociation rate constant koff [s⁻¹]
1,CC[C@@]1(c2ccccc2)C2=C(CC(C)(C)CC2=O)Nc2[nH]ncc21,2.07
2,Nc1ncnc2c1ncn2[C@H]1C[C@H](O)[C@@H](CO)O1,0.0268
3,NCC1CCC(CNc2nc(NCc3ccccc3OC(F)(F)F)ncc2[N+](=O)[O-])CC1 (centres undefined),0.337
4,Cc1noc(C)c1-c1ccc(-c2cc(C(N)=O)c(NC(N)=O)s2)c(O[C@H]2CCNC2)c1,0.5
5,N#C[C@H]1[C@H](O)[C@@H](CO)O[C@H]1n1ccc(N)nc1=O,0.0152
6,CC(C)N1CCN(Cc2cnc(-c3cc(-c4cccc5[nH]ccc45)cc4[nH]ncc34)o2)CC1,0.0296
7,Nc1nc2c(ncn2[C@H]2C[C@H](O)[C@@H](CO)O2)c(=O)[nH]1,0.00883
8,O=C1NC(=O)C(c2cn(-c3ccccc3)nc2-c2ccc(F)cc2)N1 (centres undefined),1.42
9,N#Cc1ccc(COc2ccc(-c3cccc4nc(NC(=O)C5CC5)nn34)cc2)cn1,0.0372
10,COc1ccc(-c2c(-c3ccc(O)cc3O)n[nH]c2C)cc1,0.573
11,Nc1ncnc2c1nc(Br)n2[C@@H]1O[C@@H]2COP(=O)(O)O[C@H]2[C@H]1O,0.0104
12,COc1cc2c(N3CCN(C(=O)Nc4ccc(OC(C)C)cc4)CC3)ncnc2cc1OCCCN1CCCCC1,0.039
13,NC(=O)c1nc(-c2c(F)cccc2Cl)oc1Nc1ccc(C(=O)N2CCOCC2)cc1,0.102
14,NCc1ccc(Nc2ncc(F)c(Nc3ccccc3)n2)cc1,0.121
15,CNC(=O)c1cc(Oc2ccc3nc(N[C@@H]4CCCC[C@H]4O)sc3c2)ccn1,0.175
16,O=C1Nc2ccc(I)cc2/C1=C/c1cc(Br)c(O)c(Br)c1,0.0638
17,Nc1nccc(=O)[nH]1,0.0126
18,Cc1nc(Nc2ncc(C(=O)Nc3cc(NC(=O)c4cccc(C(F)(F)F)c4)ccc3C)s2)cc(N2CCN(CCO)CC2)n1,0.0178
19,N#Cc1ccc2ncnc(NCCc3ccccc3)c2c1,0.604
20,CCN1CCN(Cc2ccc(NC(=O)Nc3ccc(Oc4cc(NC)ncn4)cc3)cc2C(F)(F)F)CC1,0.365
21,Clc1ccc(C2(c3ccc(-c4cn[nH]c4)cc3)CCNCC2)cc1,0.65
22,O=c1c(O)c(-c2ccc(O)c(O)c2)oc2cc(O)c(O)c(O)c12,0.0018
23,CN(C)CCCn1cc(C2=C(c3c[nH]c4ccccc34)C(=O)NC2=O)c2ccccc21,0.37
24,Cc1cc(O)c(-c2ccc([C@@H](C)CN(C)C)cc2)c2c1[nH]c(=O)c1sccc12,0.288
25,C[C@H]1O[C@@H](n2cnc3c(N)ncnc32)C[C@@H]1O,0.527

# System: SARS-CoV-2 nsp3 SARS-unique domain core (SUD-core, nsp3 residues 413-676)
# Assay: apparent dissociation constant Kd (single-concentration BLI fit); higher = weaker binding
# Settings: 100 µM; 25 °C
row,Structure (SMILES),apparent dissociation constant Kd [µM]
1,CC(C)c1cc(/C=C(\C#N)C(=O)NCCCc2ccccc2)cc(C(C)C)c1O,53.1
2,CC(C)(O)CC(=O)NCCn1ccc2ncnc(Nc3ccc(Oc4cccc(C(F)(F)F)c4)c(Cl)c3)c21,3020
3,Cc1[nH]c(/C=C2\C(=O)Nc3ccc(F)cc32)c(C)c1C(=O)NCCN1CCCC1,236
4,Nc1ccc(O)c(C(=O)O)c1,3.4
5,[N-]=[N+]=N[C@@H]1[C@H](O)[C@@H](n2ccc(=O)[nH]c2=O)O[C@H]1CO,159
6,Cc1ccc(Oc2ccnc3cc(-c4cnn(C5CCNCC5)c4)ccc23)cc1,9260
7,Cc1[nH]c(/C=C2\C(=O)Nc3ccc(S(=O)(=O)Cc4c(Cl)cccc4Cl)cc32)c(C)c1C(=O)N1CCC[C@@H]1CN1CCCC1,7240
8,Cc1c(C(=O)Nc2ccc(Oc3ccnc4cc(OCC(C)(C)O)ccc34)c(F)c2)c(=O)n(-c2ccccc2)n1C,2340
9,Nc1nccc(-c2c(-c3ccc(F)cc3)ncn2C2CCCCC2)n1,162
10,CN(C)Cc1ccc(-c2cnn3c(-c4cccc(NC(=O)c5cccc(C(F)(F)F)c5)c4)ccnc23)cc1,4770
11,Cn1cc(-c2cnc3cnn(S(=O)(=O)c4cnc5ccc(-c6cnn(C)c6)cn45)c3c2)cn1,43700
12,CN[C@@H]1C[C@H]2O[C@@](C)([C@@H]1OC)n1c3ccccc3c3c4c(c5c6ccccc6n2c5c31)C(=O)NC4,1670
13,COc1cc(C)c(Sc2cnc(NC(=O)c3ccc(CNC(C)C(C)(C)C)cc3)s2)cc1C(=O)N1CCN(C(C)=O)CC1 (centres undefined),548
14,Cc1ccc(-n2nc(C(C)(C)C)cc2NC(=O)Nc2ccc(OCCN3CCOCC3)c3ccccc23)cc1,2050
15,CC[C@@]1(c2ccccc2)C2=C(CC(C)(C)CC2=O)Nc2[nH]ncc21,1490
16,Nc1ncnc2c1ncn2[C@H]1C[C@H](O)[C@@H](CO)O1,19100
17,NCC1CCC(CNc2nc(NCc3ccccc3OC(F)(F)F)ncc2[N+](=O)[O-])CC1 (centres undefined),2810
18,Cc1noc(C)c1-c1ccc(-c2cc(C(N)=O)c(NC(N)=O)s2)c(O[C@H]2CCNC2)c1,1130
19,N#C[C@H]1[C@H](O)[C@@H](CO)O[C@H]1n1ccc(N)nc1=O,34.8
20,CC(C)N1CCN(Cc2cnc(-c3cc(-c4cccc5[nH]ccc45)cc4[nH]ncc34)o2)CC1,26.2

row,Structure (SMILES),apparent dissociation constant Kd [µM]
1,Nc1nc2c(ncn2[C@H]2C[C@H](O)[C@@H](CO)O2)c(=O)[nH]1,41.7
2,O=C1NC(=O)C(c2cn(-c3ccccc3)nc2-c2ccc(F)cc2)N1 (centres undefined),1170
3,N#Cc1ccc(COc2ccc(-c3cccc4nc(NC(=O)C5CC5)nn34)cc2)cn1,93.1
4,COc1ccc(-c2c(-c3ccc(O)cc3O)n[nH]c2C)cc1,829
5,Nc1ncnc2c1nc(Br)n2[C@@H]1O[C@@H]2COP(=O)(O)O[C@H]2[C@H]1O,69.1
6,COc1cc2c(N3CCN(C(=O)Nc4ccc(OC(C)C)cc4)CC3)ncnc2cc1OCCCN1CCCCC1,21.3
7,NC(=O)c1nc(-c2c(F)cccc2Cl)oc1Nc1ccc(C(=O)N2CCOCC2)cc1,9620
8,NCc1ccc(Nc2ncc(F)c(Nc3ccccc3)n2)cc1,43.7
9,CNC(=O)c1cc(Oc2ccc3nc(N[C@@H]4CCCC[C@H]4O)sc3c2)ccn1,140
10,O=C1Nc2ccc(I)cc2/C1=C/c1cc(Br)c(O)c(Br)c1,450
11,Nc1nccc(=O)[nH]1,168
12,Cc1nc(Nc2ncc(C(=O)Nc3cc(NC(=O)c4cccc(C(F)(F)F)c4)ccc3C)s2)cc(N2CCN(CCO)CC2)n1,21.2
13,N#Cc1ccc2ncnc(NCCc3ccccc3)c2c1,937
14,CCN1CCN(Cc2ccc(NC(=O)Nc3ccc(Oc4cc(NC)ncn4)cc3)cc2C(F)(F)F)CC1,1720
15,Clc1ccc(C2(c3ccc(-c4cn[nH]c4)cc3)CCNCC2)cc1,2040
16,O=c1c(O)c(-c2ccc(O)c(O)c2)oc2cc(O)c(O)c(O)c12,6.28
17,CN(C)CCCn1cc(C2=C(c3c[nH]c4ccccc34)C(=O)NC2=O)c2ccccc21,281
18,Cc1cc(O)c(-c2ccc([C@@H](C)CN(C)C)cc2)c2c1[nH]c(=O)c1sccc12,138
19,C[C@H]1O[C@@H](n2cnc3c(N)ncnc32)C[C@@H]1O,1570
